Source: patent US20220265579A1, “COMPOSITION FOR PREVENTING OR TREATING CARDIO-CEREBROVASCULAR DISEASE COMPRISING AUTOPHAGY ACTIVATOR AS ACTIVE INGREDIENT” (VASTHERA CO. LTD., priority 2019, published 2022)

Key:
[1] = system: HUVECs; assay: mRFP-GFP double-tagged LC3 fluorescence (autophagic flux); format: cell-based; settings: FIG. 1F
Text: In order to visualize the change from neutral autophagosomes to acidic autophagosomes based on the different pH stabilities between mRFP-LC3 and GFP-LC3, LC3 double tagged with mRFP/mCherry-GFP may be used. The fluorescence of mRFP is relatively stable in rososomes, but the fluorescence of GFP is unstable in acidic substances. […]

[2] = system: LC3-II and p62; assay: Time-dependent immunoblotting of LC3-II and p62 (autophagic flux); settings: 24 to 72 hours, FIG. 1D
[3] = system: LC3-II; assay: LC3-II levels in presence and absence of lysosomal protease inhibitor E64D; settings: FIG. 1E
[4] = system: AMPK; assay: Immunoblotting of AMPK phosphorylation (p-AMPK/AMPK); format: cell-based; settings: compared to rapamycin, FIG. 2A/2B
[5] = system: autophagic vacuoles; assay: MDC fluorescence staining of autophagic vacuoles; format: cell-based; settings: FIG. 1C
[6] = system: lysosomes; assay: Acridine orange staining of lysosomal activity; format: cell-based; settings: FIG. 1G
Text: In an Example, lysosomal activity was investigated using acridine orange staining, which is an analytical method for investigating the role and reliability of lysosomes. […]

[7] = system: LC3; assay: LC3 immunofluorescence staining for autophagy induction; format: cell-based; settings: 0.1 μM, 2 μM or 5 μM, FIG. 1B
[8] = system: mTOR/S6K signaling; assay: Immunoblotting of mTOR/S6K signaling; format: cell-based; settings: FIG. 2B
[9] = system: EGFP-LC3 puncta; assay: EGFP-LC3 puncta with pathway inhibitors; format: cell-based; settings: co-treatment with Compound C, FIG. 2C

Structure (SMILES) | R value (GFP/mRFP fluorescence) [1] | levels of LC3-II and p62 over time [2] | LC3-II level with versus without E64D [3] | p-AMPK/AMPK ratio / AMPK phosphorylation [4] | LC3 expression [5] | density of acridine orange (lysosomal activity) [6] | induced amount of LC3 in the cytoplasm [7] | phosphorylation of S6K [8] | EGFP-LC3 puncta with Compound C [9]
CO/C1=C\C(C)=C\[C@@H](C)[C@@H](O)[C@@H](C)C/C(C)=C/C=C/[C@H](OC)[C@@H]([C@@H](C)[C@@H](O)[C@H](C)[C@@]2(O)C[C@@H](O)[C@H](C)[C@@H](C(C)C)O2)OC1=O [bafilomycin A] | 0.943 | increase within 24 hours and the high levels of the two types of proteins are maintained during the post-treatment time of 72 hours | the expression level of LC3-II is similar regardless of the presence or absence of E64D |  |  |  |  |  | 
CNC1CC(c2ccc(Cl)c(Cl)c2)c2ccccc21 (stereo not shown) [indatraline] |  |  |  | relatively high p-AMPK/AMPK | express LC3 |  |  |  | 
CN[C@H]1CC[C@@H](c2ccc(Cl)c(Cl)c2)c2ccccc21 [sertraline] | 0.517 | increase rapidly for 24 hours, peak at the 48th hour, and then decrease from the 72th hour | the LC3-II level further increases in the case of being treated with the pharmaceutical composition and E64D together |  | express LC3 | significantly increases the density of acridine orange | LC3 is induced in the cytoplasm in proportion to the amount of sertraline administered | decreasing the phosphorylation level of mTOR and its downstream S6K | remarkably decrease
